Source: the supplement of paper PMC11417369
± gives the standard deviation of the averaged measurements. Some of the results follow.

These sequences were tested on PfAP2-I AP2 domain 3 (GST-tagged) (assay: gcPBM binding intensity (ln(normalized median fluorescence intensity)); higher = stronger DNA binding).
Procedure, shortened: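 The highest Masliner-normalised natural-log median intensity across replicate spots of either probe orientation is reported as binding intensity. GST-tagged P. falciparum DNA-binding domains expressed in E. coli were applied for 1 h to an Agilent 4 × 180k array of primer-extended double-stranded 36-bp intergenic genomic probes plus negative controls, and bound protein was detected with Alexa488 anti-GST antibody and scanned at 488 nm.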

Row | Sequence | gcPBM binding intensity (ln)
1 | ATATATATATATTATACACACGCCGAAAAAATAAAA [CACACA_site1551] | 8.94 ± 0.11
2 | TTTATTTTATCTAAAAGTACTTAAATTAGTGTATTT [XGTACX_site5696] | 7.58 ± 0.39
3 | TTACGAAAAAACAAGAGTACATGATGTTATAAAATA [XGTACX_site1412] | 8 ± 0.57
4 | CGTTGTAGGGAATGTAGTACAGTTATTATTTTATTA [XGTACX_site2429] | 7.88 ± 0.24
5 | TATATATATAAATACACACACACACCGATATATATA [CACACA_site5408] | 8.59 ± 0.43
6 | TCATACATTTTCAGCCTGCACTTATATTTAATAATA [GTGCAC_site9863] | 8.73 ± 0.61
7 | TATCAAATCCAAAGGGGTACATTTTGTTGTCCTAAT [XGTACX_site5575] | 7.75 ± 0.4
8 | TAGCTCGTTCGGAGCACACACATATAAATAAATATA [CACACA_site7002] | 7.67 ± 0.31
9 | AATACTCTATTTTATAGTACATATATTATTAATCAC [XGTACX_site6622] | 7.71 ± 0.35
10 | GAAAAAAAAAAAAATACACACAAATTGGTATATAAT [CACACA_site4369] | 7.47 ± 0.54
11 | TAGGGATTATACCACACACACATACCCATAAATATA [CACACA_site5719] | 7.87 ± 0.31
12 | ATAGACAGCGCACAAACACACAAACACGCACGCACA [CACACA_site6349] | 9.3 ± 0.071
13 | TGTTTTTTATTTAATTGTACGAATTAAAAAAAATAA [XGTACX_site3009] | 7.86 ± 0.42
14 | TTCCAACCATAGTATTCACACATTGTTTTATTCCAT [CACACA_site4927] | 8.05 ± 0.4
15 | TTTTTACTAATAAGATGTACATATATCCTAAGCATA [XGTACX_site251] | 7.92 ± 0.64
16 | TTTCGTAAACAAATTTGTACGTACAAATTTATAAAT [XGTACX_site8175] | 8.34 ± 0.13
17 | ATAATATAATAAACGTGTACACAATTAAATTATTAT [XGTACX_site3491] | 8.21 ± 0.45
18 | TACATACATACATACACACATACATATATATATATA [CACACA_site1387] | 9.33 ± 0.31
19 | TCTTTTATTAGTAAAAGTACTTATATAAATATTATA [XGTACX_site5099] | 7.6 ± 0.21

Row | Sequence | gcPBM binding intensity (ln)
20 | TAAGGAAAAAATTATAGTACATAATAAATGTATATA [XGTACX_site8328] | 7.58 ± 0.38
21 | ATAAATATATTTCACGCACACACACCCCAAATAAAT [CACACA_site9272] | 8.74 ± 0.42
22 | CAAATTTTTTATTAAACACACAAACATATATTTATA [CACACA_site6992] | 7.48 ± 0.44
23 | AAAAAAGAAAAGAAATCATGAAAGAATCAAATAAAG [CACACA_negctrl_site1771] | 7.53 ± 0.45
24 | TTTTTATATATATTCTCACACACTTTTTATTTTAAC [CACACA_site657] | 7.97 ± 0.64
25 | CATAATATATTTTATGCATGCAAAGCAACCTTTTGA [TGCATGCA_site715] | 7.83 ± 0.81
26 | TTTTTTGTTATATTTGTGCGCAAAAATTGCTGCTTG | 8.62 ± 0.72
27 | TATTAACAAAATTTTTAACACACAAAAAAAAAAAAA [CACACA_site8542] | 8.04 ± 0.73
28 | TATTTATTTAAAGGCACACATATTTTTATACTTTCT [CACACA_site3163] | 8.73 ± 0.21
29 | ATTATATATATATATAAACACACATAAATATAAATA [CACACA_site8291] | 7.53 ± 0.48
30 | AAAATTTATGTAAAATGTACATACATAAATAAAGAT [XGTACX_site4339] | 8.08 ± 0.68
31 | TTTGTAAAATAATATCTTTCATGTCCTTACTAATTA [GTGCAC_negctrl_site145] | 7.33 ± 0.59
32 | TAAAAGTTATAAGAGTGTACGTATATTTATATATCA [XGTACX_site2972] | 7.85 ± 0.34
33 | TTATTATATTCTCCTTCACACACAAAAATATTTCAT [CACACA_site8738] | 8.12 ± 0.52
34 | TGAAAAATTACAAAAATAATAAAATGAAATAATAAA [GTGCAC_negctrl_site53] | 7.54 ± 0.33
35 | TTTTAATAACCAATCCGTACATATAATCTTTATATT [XGTACX_site536] | 8 ± 0.028
36 | TGGAAAAATAGGCACACACACATATATACATATATA [CACACA_site1297] | 7.96 ± 0.35
37 | AGGACTAATATTTGAACACACATATAACATATACAT [CACACA_site7803] | 7.78 ± 0.67
38 | AACTATAAATATAAATGTACACATATGTAATATATA [XGTACX_site6085] | 7.74 ± 0.34

Row | Sequence | gcPBM binding intensity (ln)
39 | CTTTTAAATTATTTTTGTACATAATTATATATATAT [XGTACX_site4128] | 8.77 ± 0.17
40 | TACTGTTTAAAATATAAACACACATTGTTTGCTTTA [CACACA_site8358] | 7.76 ± 0.38
41 | AAAAGGAAAATTTTCTTAGTAACTGCATTAAGAGAT [GTGCAC_negctrl_site675] | 9.37 ± 0.13
42 | AAGTATAACCTTTATAATAATGACATGACCGATTTT [CACACA_negctrl_site395] | 7.46 ± 0.55
43 | AAGCATATTATAAACACACACTGTATAAAGATATAT [CACACA_site6277] | 7.66 ± 0.67
44 | ATATAACGAATAATTACACACTATAAAAAAAGATCT [CACACA_site2862] | 7.68 ± 0.69
45 | TATAACCGAATGTGTACACAAAATAATGTTATATAT [CACACA_site5627] | 8.48 ± 0.099
46 | ATAATACGAATTTGTAGTACATTTATAATAACATGA [XGTACX_site2614] | 7.91 ± 0.2
47 | TAAAAAACTTCGTGTTCACACATGTACTATATTATT [CACACA_site4796] | 7.71 ± 0.43
48 | ACCCATAAGATAATTACACACAATACATCCCTATAT [CACACA_site5262] | 7.83 ± 0.67
49 | TTTTTTTTTTTTTGTTGTACATTAAATATATTATTA [XGTACX_site7254] | 8 ± 0.76
50 | TGAATGTAAGAAAATACACACTAGTATAGTAACACC [CACACA_site5131] | 8.14 ± 0.73
51 | TTTTTATTACTTCTCTGTACTCAGGAAAATAAATAT [XGTACX_site2092] | 7.9 ± 0.44
52 | TTGATTATAATTAGTACACACAAAATACATGCGGGG [CACACA_site2277] | 8.92 ± 0.21
53 | AAATATATAATACATATGTAATATGCATATATATAT [GTGCAC_negctrl_site450] | 9.05 ± 0.34
54 | TAAAATAAAACAAACACACACACACCCCCACAAAAA [CACACA_site3850] | 10.4 ± 0.19
55 | TATTTACATGTAAAAGGTACACACATTATATATACA [XGTACX_site2157] | 7.93 ± 0.3
56 | TTTATTATTTTTTGTAGTACTTTATATAAAAGTTCT [XGTACX_site4494] | 8.07 ± 0.31
57 | ATACACTTTTATATATCAATACATTATGTATTAAGT [CACACA_negctrl_site421] | 7.88 ± 0.53
